The source of these data is patent US20080311122A1, “Antagonists of Hmgb1 and/or Rage and Methods of Use Thereof” (Medimmune, LLC, priority 2005, published 2008).

“Also recorded” adds a separate entry of the source.

Series [1] can be described thus: Isoelectric focusing gel electrophoresis. Type of series: physicochemical. Here is the method: Isoelectric Focusing Gel Electrophoresis: Isoelectric points were determined using a Pharmacia Biotech Multiphor 2 electrophoresis system with a multi temp 3 refrigerated bath recirculation unit and an EPS 3501 XL power supply. Pre-cast ampholine gels (Amersham Biosciences, pI range 2.5-10) were loaded with 5 μg of protein. Broad range pI marker standards (Amersham, pI range 3-10, 8 μL) were used to determine relative pI for the Mabs. Electrophoresis was performed at 1500 V, 50 mA for 105 minutes. The gel was fixed using a Sigma fixing solution (5×) diluted with purified water to 1×. Staining was performed overnight at room temperature using Simply Blue stain (Invitrogen). Destaining was carried out with a solution that consisted of 25% ethanol, 8% acetic acid and 67% purified water. Isoelectric points were determined using a Bio-Rad Densitometer relative to calibration curves of the standards.

Series [2] addresses T1, HMG2 (Bos taurus, UniProt P40673).
T1 construct: from tissue; host or cells: calf thymus (as read from the sentence)
T1 sequence (P40673 1-209): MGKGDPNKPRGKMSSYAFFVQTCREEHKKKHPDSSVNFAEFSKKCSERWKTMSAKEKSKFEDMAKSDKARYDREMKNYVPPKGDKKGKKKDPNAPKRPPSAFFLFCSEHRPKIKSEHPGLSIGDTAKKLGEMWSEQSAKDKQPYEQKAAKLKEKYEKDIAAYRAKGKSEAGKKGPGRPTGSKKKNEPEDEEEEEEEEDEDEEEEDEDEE
The series is described as follows: Binding to HMG1 vs. HMG2 ELISA. On the set-up: species or system calf. The following applies: immobilized antigen. Here is the method:
Binding to HMG1 vs. HMG2: Ultra high-binding ELISA plates (ThermoLab systems, #3855) were coated with either 5 ug/mL of Calf thymus HMGB1 or HMBG2 diluted in 10 mM Phosphate buffered saline (PBS), pH 7.2 and incubate overnight at 4 degrees. The plates were washed twice with Ca and Mg free PBS and 100 microliters of anti-HMGB1 antibody diluted in 10 mM PBS, pH 7.2+1% bovine serum albumin (BSA) to a final concentration of 10 ug/mL was added to each well and the plates were incubated 1 hour at room temperature. The wells were washed three times with 100 μl of PBS, pH 7.2. HRP labeled goat-anti-human IgG Kappa-chain (KPL, #14-10-10) and goat-anti-human IgG Lambda-chain (KPL, #14-10-11) were diluted in 10 mM PBS+1% BSA 1:1000 and 100 μl were added to each well and incubated for 1 hour at room temperature. The wells were then washed three times with 100 μl of PBS, pH 7.2. OPD substrate (Pierce chemical company, #34006) was prepared following the manufacturers instructions and 100 μl of prepared substrate was added to each well and the plates incubated at room temperature in the dark for 20-30 minutes. The reaction was stopped with the addition of 100 μl of 2M H2SO4, and the plates read on a plate reader at a wavelength of 490 nm.
In general terms: In an ELISA, binding on a coated surface is turned into a signal by an enzyme label.

Series [3] deals with T2, recombinant HMG1 binding to RAGE-Fc (Homo sapiens, UniProt P09429).
T2 construct: made in house; host or cells: E. coli (HMG1)
T2 sequence (P09429 1-215): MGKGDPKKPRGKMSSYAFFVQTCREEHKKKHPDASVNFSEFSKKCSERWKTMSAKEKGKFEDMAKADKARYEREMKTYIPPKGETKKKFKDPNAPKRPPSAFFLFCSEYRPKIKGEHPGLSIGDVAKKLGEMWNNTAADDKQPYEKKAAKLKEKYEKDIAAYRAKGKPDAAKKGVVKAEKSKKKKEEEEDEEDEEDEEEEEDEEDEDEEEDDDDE
The series is described as follows: HMG1 binding to RAGE-Ig by ELISA. Particulars: at the concentrations tested. As to the method:
HMG1 binding to RAGE-Ig by ELISA: 50 μl/well of RAGE-Fc fusion protein at 5 μg/ml in PBS was added to each well of an ELISA plate and incubated overnight at 4° C. The plate was then blocked with 200 μl of 5% milk at 37° C. for 1 hr and washed 3× with PBS/Tween. 50 μl/well of diluted HMGB1 solution. For dose curves, HMGB1 concentrations started at 4 ug/ml in PBS. For antibody blocking the HMGB1 was preincubated in another plate with human anti-HMG1 antibodies or buffer, then transferred to the RAGE-coated plate. The plates were then incubated at room temperature for 2 hours and washed 3×. To detect any HMG1 bound to the immobilized RAGE-Fc a mixture of biotinylated mouse anti-HMG1 mAbs (10D4, 4H11, 3E10 and 5C12) each at 1 ug/ml, total Ab: 4 ug/ml, were added to each well and the plate was incubated for 1 hour at room temperature. The plate was then washed and Strepavidin-HPR was added to each well and incubated 15 min. The plate was then washed 3× and blotted dry. 100 μl of TMB developing agent was added and the plate read at 650 nm. Values were calculated as percent of inhibition with HMG1 alone equal to 0% inhibition. The data in FIG. 9 and summarized in Table 1 represent the average of two separate experiments.

Series [4] has as its system HMG1 (recombinant, native; immobilized, soluble). The series is described as follows: Direct and sandwich (capture) ELISA comparing forms of HMG1. Type of series: binding. Here is the method:
Direct ELISA (immobilized HMG1): Individual wells of a 96-well immunoplate (EIA/RIA plate, High binding, Costar) were coated with HMGB-1 at 5 μg/ml in PBS at 4° C. overnight. The plate was then blocked with 4% milk powder dissolved in PBS at 37° C. for 1 hour. The blocking solution was removed and replaced with human anti-HMG1 antibodies at various concentrations (see FIG. 4A). The plate was then washed (ELX-405 Plate washer, BIO-TEK) and secondary antibody (anti-human IgG-HRP, PIERCE) was added at a final concentration of 1:125,000 at 37° C. for 1 hour. HRP activity was detected with Sureblue HRP substrate (KPL). Plates were read at 450 nm using a Kinetic Microplate Reader (Molecular Devices).
Sandwich ELISA (soluble HMG1): Immunoplates (EIA/RIA plate, High binding, Costar) were coated with anti human IgG Fc at 10 μg/ml in PBS (pH 7.2) and incubated at 4° C. overnight. The coating reagent was removed and the plates were rinsed briefly with PBS. The plates were then blocked with 4% milk for 1 hour at 37° C. and rinsed with PBS. The anti-HMG1 antibodies were diluted in 4% milk. For serial dilutions, the antibodies were used at a starting concentration of 20 μg/ml. […] HRP activity was detected with Sureblue HRP substrate (KPL). Plates were read at 450 nm using a Kinetic Microplate Reader (Molecular Devices).

B1: S2: human anti-HMG1 antibody, ATCC PTA-6142; VL/VH aa SEQ ID NO: 5/7 (antibody, listed as Homo sapiens, V domains shown)
VH: EVQLLESGGGLVQPGGSLRLSCAASGFTFSGYMMVWVRQAPGKGLEWVSRISPSGGQTGYADSVKGRFTISRDNSKNTLYLQMNSLRAEDTAVYYCAREEGGSYGAFDIWGQGTMVTVSS
VL: [gap - about 100 residues]FGQGTKVEIK
With B1, the PI in series [1] was 8.53. The “relative binding to HMG1 and HMG2” value in series [2] is “specific for HMG1”. Besides, the “block of recombinant HMG1 binding to RAGE” value in series [3] is given as “significant ability to block the binding of HMG1 to RAGE”. Moreover, the “binding to recombinant HMG1 versus native HMG1” value in series [4] was “better binding to rHMG1; also recorded: discriminating between recombinant and the various native forms; also recorded: bind better to recombinant HMG1 than to native nuclear HMG1”.
